# Experimental data: the RNAGym collection of RNA variant scans (doi:10.1093/nar/gkz1192)
# Read counts are not given, so values of variants with three or more changes are uncertain.
# B1: CPEB3 Ribozyme (parent)
# chain: UAACAGGGGGCCACAGCAGAAGCGUUCACGUCGCAGCCCCUGUCAGAUUCUGGUGAAUCUGCGAAUUCUGCUGUAUAUCUC
# Variants of: B1
# Assay: self-cleavage, relative activity (ratio to wild type); higher = more cleavage; in vitro, sequencing
# How it was run: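 CPEB3 self-cleaving ribozyme mutant libraries were made by rounds of error-prone PCR, barcoded, and transcribed in vitro with T7 RNA polymerase for 5 hours at 37°C. Cleavage occurred during transcription and a 15 min DNase I step before EDTA stop. RNAs were reverse transcribed with template switching and Illumina-sequenced, with DNA sequencing mapping barcodes to variants. Relative activity is the variant's cleaved/total read fraction divided by wild type's (minimum 5 reads), averaged across three batches.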
row,Variant,self-cleavage
1,A18G A57G U69G,0.2
2,A18G A57G U72A,0.23
3,A18G A57G U72C,0.25
4,A18G A57G U78C,0.43
5,A18G A57G U78C U80A,0.84
6,A18G A57U A65G,0.21
7,A18G A57U A77U,0.31
8,A18G A64G U67C,0.4
9,A18G A64G U72A,0.33
10,A18G A64U A65G U69C,0.57
11,A18G A64U U72A,0.15
12,A18G A64U U78C,0.27
13,A18G A65G U66C U76C,0.23
14,A18G A65G U67A A75G U80C,0.13
15,A18G A65G U69C,0.44
16,A18G A65U U74A U78A,0.2
17,A18G A75G A77U,0.77
18,A18G A77G U80A,0.91
19,A18G C23A A56G U58A U74A U80C,0.05
20,A18G C23G A35U A57G A64G U80C,0.03
21,A18G C23G U25A U43A U72A A77U,0.05

row,Variant,self-cleavage
1,A18G C23U A28G U43A C50U U78A,0.05
2,A18G C23U A57G,0.1
3,A18G C23U C44G U51C,0.19
4,A18G C23U C50G U60C A77U,0.05
5,A18G C23U G53C A75G,0.06
6,A18G C23U U48C U49C A77U,0.04
7,A18G C23U U48C U80C,0.07
8,A18G C27A A57G U69C,0.16
9,A18G C27A C34A A35G U48C,0.04
10,A18G C27A U60C,0.17
11,A18G C27G U31C A35U U43A,0.05
12,A18G C27U A57G U74C A75U,0.51
13,A18G C27U C39U A47G U69C U76A,0.38
14,A18G C27U U31A C40U G61C,0.08
15,A18G C27U U31A U43C G46A G61C C71A,0.1
16,A18G C27U U41C U43A A47U U60A,0.06
17,A18G C29A A56U A57G U69C U74C U80A,0.18
18,A18G C29A G33U,0.04
19,A18G C29A U31C U51A A56G U80C,0.09
20,A18G C29G U69C,0.25
21,A18G C29U A47G,0.33

row,Variant,self-cleavage
1,A18G C29U A57G U72C U80C,0.16
2,A18G C29U A65G U66C U78C,0.12
3,A18G C29U U31C U41A,0.05
4,A18G C29U U48G,0.21
5,A18G C29U U49C A57U U72A,0.16
6,A18G C29U U60C,0.27
7,A18G C29U U69A,0.17
8,A18G C29U U72A A75G,0.3
9,A18G C32A C34U U72A,0.12
10,A18G C32A C38U,0.41
11,A18G C32A U41A,0.24
12,A18G C32A U78C,0.08
13,A18G C32G A45U A57G U67C,0.08
14,A18G C32U A64G U72C,0.25
15,A18G C32U C40U U76A,0.12
16,A18G C32U C62U U69C,0.11
17,A18G C32U G36U U78C,0.06
18,A18G C32U G42A,0.38
19,A18G C32U U43C A45G U48C U54G A64G,0.05
20,A18G C32U U48C C50A U54C U72C,0.07
21,A18G C32U U54A U69C,0.08

row,Variant,self-cleavage
1,A18G C34A U54A,0.1
2,A18G C34G U43C U60C U74C A75U,0.04
3,A18G C34U U41C U49C U67G U76A,0.06
4,A18G C34U U54C,0.12
5,A18G C34U U58C,0.08
6,A18G C37A U51A A65G U67C U76A U78C,0.07
7,A18G C37A U54C A64U A65G,0.06
8,A18G C37G A45G U69A,0.18
9,A18G C37U C39A U49A A57G U69A U72C,0.05
10,A18G C37U C40U U51C,0.21
11,A18G C37U G46U A47G U76C,0.06
12,A18G C37U U43A,0.69
13,A18G C37U U51A U58G,0.23
14,A18G C37U U54C U78C,0.22
15,A18G C37U U69C G73C U74C,1.25
16,A18G C38A C62U U67G U69C,0.09
17,A18G C38A U41C A64G U80C,0.16
18,A18G C38G C44U U48C U58A U69G A75U,0.12
19,A18G C38G G52C A75U U78C,0.18
20,A18G C38G U74C,0.57
